In paper PMC4336329 (PLoS ONE, 2015):
Hit rate of the full screen: of about 310,000 compounds, about 2,200 (0.71%) showed an effect of 50% or more. Effects have a minus sign here. The list shows a part of the results.

Target: human ether-à-go-go-related gene (hERG) potassium channel (human, UniProt Q12809)
Experiment: primary screen, population patch clamp on CHO cells stably expressing hERG
Procedure: Briefly, Chinese hamster ovary (CHO) cells stably expressing the hERG channel were dislodged from tissue culture flasks and dispensed into PPC plates. […] During the recording, background leak currents were estimated by a 100 ms step to -80 mV from an initial holding potential of -70 mV and subtracted from the subsequent current measurement. The campaign was conducted in two phases using slight differences in recording protocol. In the first phase, the initial voltage pulse used a 100 ms step to -30 mV from a holding potential of -70 mV, a 2 s conditioning step to +25 mV, and a 2 s test step to -30 mV. During the second phase of the screen, the potential during the conditioning step was raised to +45 mV. In both phases of the campaign, a secondary voltage pulse was applied using the same parameters as the second phase initial pulse. The initial and secondary pulses were applied in the absence of compound, and upon application of 1 μM and 10 μM test concentrations. Small molecule effects on hERG current density were quantified by […].

Chain of human ether-à-go-go-related gene (hERG) potassium channel (Q12809 whole entry, looked up): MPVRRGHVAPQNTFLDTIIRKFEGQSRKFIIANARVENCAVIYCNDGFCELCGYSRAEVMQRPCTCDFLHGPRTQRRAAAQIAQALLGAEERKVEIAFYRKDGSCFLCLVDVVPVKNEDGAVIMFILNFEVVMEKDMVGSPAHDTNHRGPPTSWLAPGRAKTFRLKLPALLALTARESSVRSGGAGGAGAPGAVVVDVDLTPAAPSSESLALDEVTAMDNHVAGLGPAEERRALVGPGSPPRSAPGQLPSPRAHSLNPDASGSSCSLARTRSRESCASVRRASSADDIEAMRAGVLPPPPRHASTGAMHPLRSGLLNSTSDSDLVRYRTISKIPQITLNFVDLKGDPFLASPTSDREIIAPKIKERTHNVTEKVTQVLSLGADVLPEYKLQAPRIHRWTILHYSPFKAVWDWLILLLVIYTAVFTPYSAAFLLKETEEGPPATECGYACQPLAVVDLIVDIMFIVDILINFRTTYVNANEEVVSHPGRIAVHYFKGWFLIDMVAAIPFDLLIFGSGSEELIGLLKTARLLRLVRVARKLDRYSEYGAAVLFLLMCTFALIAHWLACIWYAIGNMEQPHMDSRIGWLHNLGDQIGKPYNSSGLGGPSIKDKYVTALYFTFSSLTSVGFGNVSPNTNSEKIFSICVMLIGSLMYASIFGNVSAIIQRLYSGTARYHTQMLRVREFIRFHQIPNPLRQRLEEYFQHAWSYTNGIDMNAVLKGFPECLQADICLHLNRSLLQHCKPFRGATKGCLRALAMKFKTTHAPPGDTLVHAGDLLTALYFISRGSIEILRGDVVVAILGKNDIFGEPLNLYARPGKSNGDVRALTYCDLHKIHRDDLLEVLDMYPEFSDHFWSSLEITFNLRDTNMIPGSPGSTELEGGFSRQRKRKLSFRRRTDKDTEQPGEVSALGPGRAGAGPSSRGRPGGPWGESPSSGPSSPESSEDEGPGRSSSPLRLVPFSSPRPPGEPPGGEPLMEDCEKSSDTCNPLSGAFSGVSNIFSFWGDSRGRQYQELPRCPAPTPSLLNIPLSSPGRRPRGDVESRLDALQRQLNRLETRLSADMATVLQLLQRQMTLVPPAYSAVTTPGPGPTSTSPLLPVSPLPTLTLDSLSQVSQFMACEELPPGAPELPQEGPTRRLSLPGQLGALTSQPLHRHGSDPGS

Point of comparison: `CCOc1ccccc1NC(=O)c1ccc(Cl)c(NC(=O)CC(c2ccccc2)c2ccccc2)c1`, “hERG current change (%, negative = inhibition) at 1uM” value 5.65%. Against it:
- COc1ccc(CCNC(=O)C2CCC(=O)N2Cc2ccccc2Cl)cc1OC (centres unmarked) — higher, 12%
- O=C(O)c1cnn2c(-c3ccc(F)cc3)ccnc12 — higher, 14.1%
- CCOc1cc(C=O)ccc1OCC(=O)NC(C)(C)C — higher, 6.41%
- Cc1cccc(N2CCN(C(=O)c3cccc(N4C(=O)C5CC=CC(C)C5C4=O)c3)CC2)c1C (centres unmarked) — lower, 2.22%
- CCC(CC)NC(=O)c1ccc2c(c1)OCCO2 — higher, 9.66%
- COc1ccc(C(C)C)cc1S(=O)(=O)NC1CCCC1 — higher, 12.1%
- NCCCCCc1cn([C@@H](CO)C(=O)NCCCCCCCCCCC(=O)N2CCNCC2)nn1 — lower, 2.47%
- C=CCNc1nnc(Cc2ccc(F)cc2)c(=O)[nH]1 — higher, 26.1%
- Cc1noc(C)c1S(=O)(=O)NCCN1CCN(c2ccccc2)CC1 — higher, 12.4%
- Cc1ccc(C)c(Nc2nc(-c3cccnc3)cs2)c1 — higher, 7.69%
- O=C(CCCN1C(=O)S/C(=C/c2ccccc2)C1=S)Nc1ccc(C(=O)O)cc1 — higher, 10.2%
- CN(CC(=O)NCCc1ccc(S(N)(=O)=O)cc1)S(=O)(=O)c1ccc(Br)s1 — higher, 8.96%
- CCC(CC)C(=O)NCCc1cc2c(C)ccc(C)c2[nH]c1=O — higher, 9.97%
- O=C(c1cccc(S(=O)(=O)N2CCOCC2)c1)N1CCC(Cc2ccccc2)CC1 — lower, 0.775%
- O=C1NC(c2ccccc2)(C(F)(F)F)SC2=CCCCCN12 (centres unmarked) — higher, 18.9%
- CCN(CC)C(=O)c1[nH]cnc1C(=O)N[C@@H](C)C(=O)OCc1ccccc1 — higher, 5.76%
- CC(C(=O)NC1CCCc2ccccc21)N1C(=O)C2CCCCC2C1=O (centres unmarked) — higher, 15.6%
- Cc1ccc(S(=O)(=O)N2CCCC2C(=O)Nc2nc3ccccc3s2)cc1 (centres unmarked) — lower, -5.12%
- C=CCN1C(=O)[C@@H]2Cc3c([nH]c4ccccc34)C(c3cc(OC)c(OC)c(OC)c3)N2C1=S (some centres unmarked) — higher, 14%
- Cl.O=C(OCCN1CCCCC1)c1ccccc1Br — lower, 5.12%
- O=C1NC(=O)C(CCc2ccncc2)(CCc2ccncc2)C(=O)N1C1CCCCC1 — lower, -69.7%
- CC(=O)N1N=C(c2ccc3ccccc3c2)OC1(C)C — higher, 8.84%
- COc1cccc(C(=O)CSc2nnnn2C2CCCCC2)c1 — higher, 18.1%
- O=C(N/N=C/c1ccc([N+](=O)[O-])o1)c1cn(-c2ccccc2)nc1-c1ccc(Cl)cc1 — higher, 11.6%
- COCCn1c(C)nnc1SCC(=O)NNC(=O)c1ccc(Cl)cc1 — higher, 14.9%
- COc1cc(C)nc(N(C)S(=O)(=O)c2ccccc2Cl)n1 — higher, 7.72%
- CCOC(=O)C(O)(c1ccc(N(CC)C(=O)COc2ccccc2)cc1)C(F)(F)F (centres unmarked) — higher, 5.79%
- Cc1cccc(NC(=S)N2CCN(C(=O)c3ccco3)CC2)c1C — higher, 14.8%
- CCN(CC)S(=O)(=O)c1ccc2oc(C(=O)NC(C)C)c(C)c2c1 — lower, 5.03%
- Cc1ccc(NC2=NCC(=O)N2Cc2ccccc2)c(C)c1 — higher, 9.59%
- COc1ccc(NC(=O)c2cccc(-c3ccc(O)cc3)c2)cn1 — higher, 14.7%
- CC(C)CC1NC(=O)N(CC(=O)Nc2ccc3c(c2)CCC3)C1=O (centres unmarked) — lower, 2.78%
- COC(=O)c1cc(S(=O)(=O)NCC2CCN(Cc3ccc(C)cc3)CC2)c[nH]1 — lower, -63%
- O=c1cc(-c2ccc(F)cc2F)[nH]c2ccccc12 — higher, 6.35%
- CN(C)CCOC(=O)c1cccc(Br)c1.Cl — lower, -1.29%
- CS(=O)(=O)O/N=C1\CCCCC1c1ccc([N+](=O)[O-])cc1[N+](=O)[O-] (centres unmarked) — higher, 8.44%
- COc1ccccc1-c1noc(-c2cc(OC)c(OC)c(OC)c2)n1 — lower, -2.53%
- CCOc1ccc(NC(=O)C(=O)NCCN2CCN(S(=O)(=O)c3ccccc3)CC2)cc1 — lower, -4.13%
- Cl.N=c1sccn1CC(=O)Nc1ccc(S(N)(=O)=O)cc1 — higher, 12.4%
- C=CCOc1ccc(C2C(C#N)=C(N)N(Nc3ccccc3)C3=C2C(=O)CCC3)cc1OC (centres unmarked) — lower, -1.71%
- CCC1Sc2ccc(S(=O)(=O)Nc3ccc(OC)cc3)cc2NC1=O (centres unmarked) — higher, 11%
- Cc1ccc(C(=O)c2ccc([N+](=O)[O-])cc2)cc1C — higher, 10.8%
- O=C(CCCn1c(=S)[nH]c2ccc(Br)cc2c1=O)NCc1ccccn1 — higher, 12%
- COc1cccc(OCCNCc2ccccc2)c1.O=C(O)C(=O)O — higher, 10.9%
- COc1ccccc1CCNC(=O)C(=O)NCC1OCCCN1S(=O)(=O)c1cc(C)ccc1C (centres unmarked) — lower, 2.89%
- COc1ccccc1-c1cn[nH]c(=S)n1 — higher, 17.5%
- CCOC(=O)CN1C(=O)/C(=C/c2cccc(Br)c2)Oc2ccccc21 — higher, 15.3%
- Cc1ccc(C(=O)N/C(=C/c2ccco2)C(=O)NC2CCS(=O)(=O)C2)cc1 (centres unmarked) — higher, 13.2%
- O=C(NNC(=O)c1cccc(Br)c1)Nc1ccc(Cl)cc1 — higher, 9.84%
- O=CNNC(=O)c1cccc([N+](=O)[O-])c1 — higher, 15.9%
- CCc1ccc(N2C(=O)NC(=O)/C(=C/c3cccn3CCOc3ccc(C(C)CC)cc3)C2=O)cc1 (centres unmarked) — higher, 14%
- Cc1ccc(C(=O)NC(C)C2CC3CCC2C3)cc1 (centres unmarked) — higher, 15.1%
- O=C(CNS(=O)(=O)c1ccc(Br)s1)NCc1ccccc1 — higher, 16.8%
- Cc1c(Cl)c(C(=O)N2CCCCCC2)nn1C — higher, 13.4%
- Cc1nn(-c2ccccc2)c(C)c1NC(=O)COC(=O)CCOc1ccccc1 — lower, -1.81%
- Nc1ncnc2c1ncn2CCNCCc1ccccc1 — lower, -13.7%
- CCN(C(=O)COC(=O)c1[nH]c(=O)[nH]c(=O)c1N)c1ccccc1 — higher, 19.7%
- CN(C)c1ccc(-c2cccc(C3CC=CC4C3C(=O)N(Cc3ccccc3)C4c3ccc(C(F)(F)F)cc3)c2)cc1 (centres unmarked) — higher, 16.7%
- CC(Oc1ccc2c(c1)oc(=O)c1ccccc12)C(=O)NC(Cc1c[nH]c2ccc(O)cc12)C(=O)O (centres unmarked) — higher, 17%
- O=C(CCSc1ccccc1)NCCSc1ccccn1 — higher, 15.7%
- COc1cccc(Cl)c1NC(=O)N1CCN(c2cc(C)nc3ccccc23)CC1 — lower, -49.8%
- N=C1C(c2nc3ccccc3s2)=C(O)CN1C1CCC(O)CC1 (centres unmarked) — higher, 9.85%
- Cc1cccc(OC(=O)c2sc(Cl)nc2C)c1 — lower, -2.52%
- CCS(=O)(=O)NCC(c1cccnc1)N1CCN(c2ccccc2OC)CC1 (centres unmarked) — higher, 6%
- CN(CC(=O)NC1CC(C)(C)NC(C)(C)C1)S(=O)(=O)c1ccc(Br)cc1 — lower, 3.35%
- Cc1ccc(Cc2cnc(NC(=O)/C(C#N)=C/c3ccc(-c4ccc([N+](=O)[O-])cc4)o3)s2)cc1 — higher, 10.7%
- COc1ccc(OC)c(S(=O)(=O)Nc2ccccc2C)c1 — higher, 10.2%
- Cc1cccc(NC2=NC(=S)N(c3cccc(C(=O)O)c3)C23CCCCC3)c1 — higher, 13.5%
- Cc1cc(C)cc(-n2c(SCC(=O)NCc3ccco3)nc3ccccc3c2=O)c1 — higher, 7.3%
- O=S(=O)(Cc1cc(Cl)nc(-c2cccnc2)n1)c1ccccc1 — lower, 4.47%
- CCN(CC)CCCC(C)N=C(c1ccccc1)c1c(O)n(C)c(=O)n(C)c1=O (centres unmarked) — higher, 11.9%
- COCCCn1c(SCC(=O)NC(C)(C)C)nnc1-c1cccs1 — higher, 10.8%
- CCOC(=O)c1c(C)[nH]c(C)c1C(=O)COC(=O)C1CCCN1S(=O)(=O)c1ccccc1F (centres unmarked) — higher, 9.3%
- COc1ccc(/C=C(\C#N)c2n[nH]c(Cn3cncn3)n2)cc1 — lower, 3.43%
- CSc1ncccc1C(=O)OCC(=O)N(C)C1CCS(=O)(=O)C1 (centres unmarked) — higher, 12.8%
- O=C(NC(=S)N1CCN(c2ccc(F)cc2)CC1)c1cccs1 — lower, 0.287%
- Cc1[nH]n(-c2ccccc2)c(=O)c1C=NCc1ccncc1 — lower, -1.94%
- CCN1CCN(c2c(Cl)cccc2NC(=O)c2cc3ccccc3o2)CC1 — lower, 4.41%
- O=C(COc1ccc(Cl)cc1Br)Nc1ccncc1 — lower, 4.76%
- CN1C(=O)NC(c2ccccc2[N+](=O)[O-])C2=C1CCCC2=O (centres unmarked) — higher, 9.86%
- Cc1cc(C)n(CCC(=O)N/N=C/c2ccccc2O)n1 — higher, 13.4%
- S=c1[nH]nc(CSc2nc3ccccc3s2)o1 — lower, 3.83%
- O=CN1N=C(c2ccccc2)CC1c1ccc(Cl)cc1 (centres unmarked) — lower, -3.5%
- COC(=O)c1ccccc1NC(=O)CN(C)S(=O)(=O)c1ccc(OC)cc1 — higher, 6.94%
- Cc1cc(C)nc(NS(=O)(=O)c2ccc(NC(=O)CSc3ncn[nH]3)cc2)n1 — higher, 14%
- CCOC(=O)c1cc(-c2cccc([N+](=O)[O-])c2)on1 — higher, 11.5%
- COC(=O)c1ccc(CNC(=O)c2sccc2-c2ccccc2)cc1 — higher, 13%
- COc1ccc(NC(=O)N2CCN(S(C)(=O)=O)CC2)cc1OC — higher, 11.4%
